Read counts are not given, so values of variants with three or more changes are uncertain.
B1: LINE1-mini (parent)
chain: GGCAGAGCUCAACACAGCGUGGCAAAGUGGCUGUGGCUAGACUGCC

Variants of: B1
Test: self-cleavage, relative activity (ratio to wild type); higher = more cleavage; in vitro, sequencing; the parent is a self-cleaving ribozyme
Work on GGUAGAGCUAAACACAGCGUGGCAAAGAGGCUGUGGCUAGACUGCC yielded a self-cleavage of 0.04.
For GGCAGAGCUCAAGACAGCGUGGCAUAGUGGCUCUGGCUAGGCCGCC, the self-cleavage was 0.02.
For GGCAGAGCUCAACACAGCGAGGCAAAGUUCGUGUGGCUAGCCUGCC, the self-cleavage was 0.07.
GGCAGAGCUCAACAGAACCUGUCAAAGUGGCUUUGGCUAGACUGCC gave a self-cleavage of 0.1.
With GGCAGAACUCAAGACAGCGUGGCAAAGUGACUGUGGCUAGACUGCC the self-cleavage was 0.2.
GGGAGAGUUCAAAACAGAGUGGCAAAGUGGCUGUGGCUAGACUGCC showed a self-cleavage of 1.19.
For GGCAGAGGUCAACACAGCGUGGCAAAGUGGCUGUGGCAUGACUGCC, the self-cleavage was 0.03.
In the case of GGCAGAGCUCUACACAGCUUGGCAAAGUGGCUGUGGCUAGACUGUC, the self-cleavage is reported as 0.3.
With GGCAGAGCUCAACACAGCGCGGCAAAGUGGCUUUGCCUAGACUGCC the self-cleavage was 0.01.
In the case of GGCAGAGCUAAACACAGCGUGGGAAAGUGGCUGUCGCUAGACAGCC, the self-cleavage is reported as 0.
In the case of UGCAGAGGUCAUCACAGCGUGGCAAAGUGGCUGUGGCUAUACUGCC, the self-cleavage is reported as 0.02.
For GGAAGAGCUAAACACAGCGUGGCAAAGUCGCUGUGGCUAGACUGCC, the self-cleavage was 0.02.
GGCAGACCUCAACACAGCGUGGCCAAGUGGCUGUGUCUACACUGCC gave a self-cleavage of 0.02.
For CGCAGGGCUCAACACAGCUUGGCAAAGUGGCUGUGGCUAGACUGCC, the self-cleavage was 0.04.
Variant GGGAGAGCUCAACACAGCGUGGCAAAGUAGCUGUGGCGAGACUGCC has a self-cleavage of 0.03.
Work on GGCAGAGCUCAACACAGCGUGGCAAAGUGGCUGUCUCUAGACUGCU yielded a self-cleavage of 0.05.
In the case of GGCAGAACUCAACACAGCGUGGCAAAGUGUGUGUGGCUAGACUGCC, the self-cleavage is reported as 0.03.
GGUAGCGCUCAACGCAGCGUGGCAAAGUGGCUGUGGCUAGACAGGC gave a self-cleavage of 0.09.
In the case of GGAAGAGCUCAACAAAGCGUGGCAAAGUGGAUGUGACCAGACUGCC, the self-cleavage is reported as 0.01.
Work on GGCAGAGCUUCACACAGCGUGGCAAAGUGGCUGGGGCUAGACUCCC yielded a self-cleavage of 0.
Work on UGCACAGAUCAACACGGCGAGGCAAACUGGCUGUGGCUAGACUGCC yielded a self-cleavage of 0.03.
In the case of GGCAGAGUCCAACACAGCGUGGCAAAGUGGCUGUGGCUAGACUGCG, the self-cleavage is reported as 0.01.
GGCAGAGGGCAACACAGCGUGGCAAAGUGGCUGUGGCUAGCCCGCC showed a self-cleavage of 0.01.
With GGCAGAGCCCAAGACAACGUGGCAAAGUGGCUGUGGCUAGACUGCC the self-cleavage was 0.03.
For GGAAGAGCUCAACACAGCGUGGCAAAGUAGCUGUGGUUAGACUGCC, the self-cleavage was 0.03.
GGCAGAGCUCAACACAGCCUUGGUAAGUGGCUGUGGCUAGACUGCC gave a self-cleavage of 0.3.
For GGCAGAGCUCAAUACAGCGUGGCAAAGGGGCAGUGGCUGGACAGCC, the self-cleavage was 0.02.
In the case of GGCACAGUUCCACACAGCGUGGUAAAGUGGCUGUGGCUAGACUGCC, the self-cleavage is reported as 0.07.
GGCAGAGCUCAACACAGCGUGGCAGAGUGCCUGUGACUAGACUGCC gave a self-cleavage of 0.01.
GGAAGAGCUCAACACAGCACGGCAAAGUGGCUGAGGCUAGACUGCC showed a self-cleavage of 0.27.
Work on UGCAGUGCUCAACACAGCGUGGGAUAGUGGCUGUGACUAGACUGCC yielded a self-cleavage of 0.09.
CGCAGCGCUCCACACAGCGUGGCAAAGUGGCUGUGGCUAGACUGCC showed a self-cleavage of 0.01.
With GGCAGAGCUCAACACCGCGUGGCAAAGCGUCUGUGGCUAGACUGCA the self-cleavage was 0.34.
Variant GUCAGAGCUCAACACAGCGUGGCAAUGUGGCUGUUGCUAGACGGAC has a self-cleavage of 0.02.
GGCAGAGCUCAACACAGCGUGCCAAAGUGGAUUUGGCUAGACUGCC showed a self-cleavage of 0.19.
Work on GGCAGAGCACAACACAGCGUCGCAAAGUGGCUGCGGCUAGACUCCC yielded a self-cleavage of 0.01.
In the case of UGCAGAGCUCAACACAGCGUGGCAAAGUGGCUGUGGCGAAACUGCC, the self-cleavage is reported as 0.02.
Variant GCCAGCGCUCAACACAGCGUGGCAAAGUGGUUGUGGCUAGGCUGCC has a self-cleavage of 0.04.
GGCAGACCUCAACGCAACGUGGCAAAGUGUCUCUGGAUAGACUGCC showed a self-cleavage of 0.02.
In the case of GGUAGAGCUCAACACAGCGUGGCAAAGUGGCUGUGACUAAACUGCC, the self-cleavage is reported as 0.26.
In the case of GGCAGAGCUCAACACAGAGUGUCAAAGUGGUUGUGGCUUGACUGCC, the self-cleavage is reported as 0.04.
GGCAGCGCGGAACACAGCGUUGCAAAGUGGCUGUGGAUAGACUGUC showed a self-cleavage of 0.01.
Work on GGCAGAGCUACACACAGCAUGGCAAAGUGGCUGUGGCUAGACUGGC yielded a self-cleavage of 0.02.
For ACCCGAGCUCAACACACCGUGGCAAAGUGGCUGUGGCUAGACUGCC, the self-cleavage was 0.08.
In the case of AGCAGAGCUCAACACAGCGUGGCAAAGUGGCUUUGGCUAGAAUGCC, the self-cleavage is reported as 0.13.
For GGCAGAGCUCAAAACAGCGUGGCAAAGUGGCUGUGACUUGACUGCC, the self-cleavage was 0.35.
GGCAGAGCUCAACACAGCGUGGCAGAGUGGAGGUGGCUACACAGCC showed a self-cleavage of 0.17.
GGUAGAGCUCAACACAGAGUGGCAAAGUGGCCGUGGCUAGACAGCC showed a self-cleavage of 0.
In the case of GGCAGAGCUCAACACAGCGUGGGAAAGUGGCUGUUGCUCGACUGCC, the self-cleavage is reported as 0.18.
For GCCAGAACUCAACACAGAAUGGCAAAGUGGCUGUGGCUAGACUGCC, the self-cleavage was 0.92.
GGCGGAGCUCAACACCGCGUGGCAAAGUGGAUGUGUCUAGGCUGCC showed a self-cleavage of 0.1.
Variant GGCAGAGCUCAACACAGCGUGCCAAAAUGACUGUGGCUAGACUGCC has a self-cleavage of 0.52.
GGCAGAGCUCAACACAGCGGGGUACAGUGGCUGAGACUAGACUGCC gave a self-cleavage of 0.03.
GGCAGAGCUCAACACAGCGUGGCAAAGUGGAUGUGGCUAGACUUCA gave a self-cleavage of 0.06.
Variant GAUAGAGAUCAGCACAGCGUGGCAAAGUGGCUGUGGCUAGACUGCC has a self-cleavage of 0.21.
For GGCAGAGCUCAACACAGCAUGGCAAAGUGGCCGUCGCUAGCCUGCU, the self-cleavage was 0.01.

Source: the RNAGym collection of RNA variant scans (doi:10.7554/elife.90254)
